Source: PMC8428793
No constants are given. Whether binding was seen depends on the method and setting. Some results given as binding are weak or reduced against the parent protein; the word gives no strength. Where a sequence is shown, tags or fusion partners need not be part of it.

By UniProt entry, the sequences of proteins in these tests, tags left out.
UniProt Q9UK41: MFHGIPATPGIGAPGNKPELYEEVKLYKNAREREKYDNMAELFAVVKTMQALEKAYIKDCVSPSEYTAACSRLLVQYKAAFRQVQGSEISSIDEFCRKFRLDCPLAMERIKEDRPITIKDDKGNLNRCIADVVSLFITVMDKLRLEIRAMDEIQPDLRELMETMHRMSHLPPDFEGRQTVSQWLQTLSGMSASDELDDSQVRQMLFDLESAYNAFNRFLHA

Molecular target: T1, AKTIP fused to the Gal4 DNA-binding domain (human) (UniProt Q9H8T0)
T1 sequence: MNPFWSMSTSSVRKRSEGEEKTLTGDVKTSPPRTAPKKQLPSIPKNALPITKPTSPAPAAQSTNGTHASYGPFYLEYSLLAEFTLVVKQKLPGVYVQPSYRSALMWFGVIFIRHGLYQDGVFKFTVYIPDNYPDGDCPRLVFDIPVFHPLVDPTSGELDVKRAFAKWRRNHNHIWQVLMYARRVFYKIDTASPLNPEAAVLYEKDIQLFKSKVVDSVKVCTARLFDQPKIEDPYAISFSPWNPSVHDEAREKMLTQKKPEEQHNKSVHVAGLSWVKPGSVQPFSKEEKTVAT
Assay: two-hybrid; yeast Y190 co-transformed with AKTIP-Gal4 DNA-binding domain (pGBKT7) and VP16 activation domain fusions (pHB18); liquid beta-galactosidase (LacZ) assay

binding: binds
Substance: VPS28 fused to the VP16 activation domain (from UniProt Q9UK41 1-221)
